Results from the supplement of paper PMC5998384.

Experiments:
[1] = tested on: HeLa Kyoto; experiment: solubility in G1/S (NP-40 vs SDS abundance) (log2 ratio); higher = more soluble; details: cell cycle stage: G1/S
[2] = tested on: HeLa Kyoto; experiment: melting temperature (median over replicates), in situ; higher = more thermally stable
[3] = tested on: HeLa Kyoto; experiment: thermal stability score vs G1/S (z-score of summed log2 fold changes over temperatures); higher = more thermally stable than in G1/S
[4] = tested on: HeLa Kyoto; experiment: solubility change mitosis vs G1/S (difference of NP-40 vs SDS log2 ratios) (log2 ratio difference); higher = more soluble in mitosis
[5] = cell cycle stage: early G1 (4.5 h after nocodazole release)
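For melting temperature (median over replicates), in situ in this document: HeLa Kyoto cells synchronized by double thymidine or nocodazole block, proteins quantified by TMT10plex mass spectrometry, three independent biological replicates.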
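For solubility change mitosis vs G1/S (difference of NP-40 vs SDS log2 ratios) in this document: synchronized HeLa Kyoto cells (double thymidine block for G1/S, nocodazole release for mitosis), protein amounts in NP-40 versus SDS lysates quantified by mass spectrometry, three biological replicates.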
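For solubility in G1/S (NP-40 vs SDS abundance) in this document: HeLa Kyoto cells arrested at G1/S by double thymidine block, proteins quantified by TMT10plex mass spectrometry in mild NP-40 versus SDS extracts, three biological replicates.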
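For thermal stability score vs G1/S (z-score of summed log2 fold changes over temperatures) in this document: synchronized HeLa Kyoto cells, proteins quantified by TMT10plex mass spectrometry, three biological replicates, mitosis taken 0.5 h after nocodazole release, G1/S directly after double thymidine block.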

Row | Substance | solubility in G1/S (log2) [1] | melting temperature ([2]; cell cycle stage: G1/S) | melting temperature ([2]; cell cycle stage: mitosis) | thermal stability score [3, 5] | thermal stability score ([3]; cell cycle stage: mitosis) | solubility change mitosis (log2) [4]
1 | SNRNP70 (sequence left out) | -0.825 | 50.8 °C | 50.8 °C | -2.71 | -2.66 | 0.314
2 | RAB7A (sequence left out) | 0.194 | 58.6 °C | 58.7 °C | -0.154 | -1.67 | -0.0341
